According to PubChem BioAssay (NCI):
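Exposure lasted 48 hours, with cells grown in 96-well plates and compounds tested at five concentrations. GI50: concentration for 50% inhibition of growth. The concentration for full growth arrest is given as TGI.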

Test system: NCI-H322M lung
Test: DTP human tumour cell line panel, 48 h

O=C(CSc1nnc(-c2ccc3nc(-c4ccc(Cl)cc4)[nH]c3c2)o1)Nc1ccc(Br)cc1
GI50: 8.53 µM | TGI: 23.4 µM
